# According to PMC6919601, “Identification of Plasmodium dipeptidyl aminopeptidase allosteric inhibitors by high throughput screening” (PLoS ONE, 2019):
# Where “and” joins values, the source holds several entries; their conditions need not be identical. Identical values can stand only once. The campaign covered roughly 110,000 compounds. About 230 (0.21%) showed an effect of 50% or more. The list shows a part of the results.
# Biological target: DPAP1 (Plasmodium falciparum, UniProt Q8IIJ9)
# Assay: primary screen, percent inhibition; read by cleavage of a fluorogenic dipeptide substrate; higher = more effect of the substance
# Set-up: species or system P. falciparum D10 trophozoite lysates; single well
# 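Further: 30 min substrate incubation versus DMSO and 10 µM JCP410 controls.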
# DPAP1, sequence (Q8IIJ9 whole entry, looked up): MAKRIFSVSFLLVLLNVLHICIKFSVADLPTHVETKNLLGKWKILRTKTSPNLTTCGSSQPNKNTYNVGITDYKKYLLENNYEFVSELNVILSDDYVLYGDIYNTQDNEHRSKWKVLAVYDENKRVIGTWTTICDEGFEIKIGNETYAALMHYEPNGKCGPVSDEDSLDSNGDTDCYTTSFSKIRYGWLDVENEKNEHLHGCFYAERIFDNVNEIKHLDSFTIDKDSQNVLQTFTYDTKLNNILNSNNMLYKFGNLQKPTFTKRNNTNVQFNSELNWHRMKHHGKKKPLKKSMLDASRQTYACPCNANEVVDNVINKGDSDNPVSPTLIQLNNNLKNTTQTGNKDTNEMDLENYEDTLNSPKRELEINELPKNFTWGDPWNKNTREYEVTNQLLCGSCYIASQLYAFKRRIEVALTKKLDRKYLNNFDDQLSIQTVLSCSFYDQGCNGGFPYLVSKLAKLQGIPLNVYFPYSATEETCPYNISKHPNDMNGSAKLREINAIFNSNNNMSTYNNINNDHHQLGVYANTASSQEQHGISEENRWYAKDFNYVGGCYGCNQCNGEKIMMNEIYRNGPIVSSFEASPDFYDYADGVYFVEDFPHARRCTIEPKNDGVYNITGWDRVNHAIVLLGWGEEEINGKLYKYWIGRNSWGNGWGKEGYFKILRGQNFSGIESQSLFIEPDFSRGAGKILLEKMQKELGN
row,SMILES,% Inhibition @ 10 uM
1,Cc1ccccc1CN(CCO)Cc1ccccc1,-3.57%
2,COc1cc(OC)c(C2C(C#N)=C(N)OC3=C2C(=O)CC(C)C3)cc1Br (centres unmarked),-3.79%
3,COC(=O)/C(C#N)=C/c1c(Oc2ccc(Br)cc2)nc2ccccn2c1=O,-4%
4,COc1cccc(C2=N/C(=C\c3sccc3C)C(=O)O2)c1,2.92%
5,O=C(Nc1cccc2c(NC(=O)C(F)(F)F)cccc12)C(F)(F)F,5.51%
6,CS(=O)(=O)N(CC(=O)NC1CCCCC1)c1cccc(Br)c1,-3.49%
7,Cc1cc(OCCCCN2CCOCC2)cc(C)c1Cl,6.54%
8,N#Cc1ccccc1Cn1c(-c2cncs2)nc2ccccc21,3.84%
9,OCCNCC1(O)C2CC3CC(C2)CC1C3 (centres unmarked),2.65%
10,COc1ccc(CCNC(=O)C2Cc3ccccc3CN2S(=O)(=O)c2cccs2)cc1OC (centres unmarked),-0.123%
11,Cc1ccc(CN2CCC(CNS(=O)(=O)c3ccc(-c4cc(C(F)(F)F)no4)s3)C2)cc1 (centres unmarked),1.05%
12,O=C(O)c1ccc2c(c1)C(=O)N(c1cnc(O)nc1O)C2=O,-7.27%
13,COc1ccc(OCC(=O)Nc2c(C(=O)c3ccc(OC)cc3)oc3ccccc23)cc1,-0.99%
14,OCc1nc2ccccc2n1CC(O)Cn1ccc2ccccc21 (centres unmarked),3.35%
15,CCOC(=O)c1ccc2nc(Nc3nc4c(OC)cccc4s3)sc2c1,0.458%
16,Cc1ccccc1Cn1cc(NC(=O)COc2ccccc2)cn1,0.512%
17,Cn1c2ccc(F)cc2c2nnc(S)nc21,74%
18,Brc1cccc(CN2CCN(c3ccccn3)CC2)c1,3%
19,Cc1ccc(CS(=O)(=O)Cc2ccc(C(=O)NC3CCCC(C)C3C)o2)cc1 (centres unmarked),3.79%
20,Nc1c(C(=O)Nc2ccccc2C(=O)O)sc2nc3c(cc12)CCCCC3,15.8%
21,Clc1ccc(CNc2ccc(CNc3nc[nH]n3)cc2)cc1,-3.43%
22,CCN(CC)C(=O)Oc1cc(=O)n(C)c2ccccc12,6.37%

row,SMILES,% Inhibition @ 10 uM
1,COc1ccccc1NC(=O)COc1cc(C)ccc1C(C)C,-11.4%
2,O=C(CN1Cc2ccccc2C1=O)Nc1ccccn1,-4.1%
3,O=C(NCc1ccccn1)c1ccc(NC(=O)c2ccco2)cc1,-9.53%
4,CC(NC(=O)c1csc2ccccc12)c1ccccc1 (centres unmarked),-8.78%
5,COCc1cc(C)nc(Nc2ccc(C)cc2C)c1C#N,-0.436%
6,COc1ccc(C(=O)N2CCN(CC(=O)N3CCOCC3)CC2)cc1,6.33%
7,Cn1c(C(=O)N2CCCCC2)cc2sccc21,1.89%
8,CCc1ccc(-n2c(C)nnc2SCc2nc(-c3ccc(C)cc3)no2)cc1,-2.43%
9,CC(C)c1ccccc1NC(=O)c1ccc(CN2CCOCC2)cc1,3.04%
10,CN(CCCNC(=O)c1cnn(-c2ccc(F)cc2)c1-n1cccc1)C1CCCCC1,-0.913%
11,CC(C)(C)Nc1ncnc2c1cnn2-c1ccc(Cl)cc1,-2.67%
12,COc1ccccc1NC(=O)CN1C(=O)c2cccc3cccc(c23)C1=O,2.51%
13,COc1ccc(C(=O)/C=C\c2ccc(Cl)cc2Cl)cc1F,4.6%
14,O=C(NC1CCCc2ccccc21)C(Cc1ccccc1)NS(=O)(=O)c1cccs1 (centres unmarked),4.02%
15,CN1C(=O)N(c2ccccc2)C(NC(=O)Nc2ccc(Cl)c(Cl)c2)C1(C)C (centres unmarked),3.7%
16,O=C1C(/C=N/CCN2CCOCC2)=C(O)c2ccccc21,10.6%
17,N#CC1=C(N)N(c2c(F)cccc2F)C2=C(C(=O)CCC2)C1c1ccsc1 (centres unmarked),-9.33%
18,CC(C)(C)C1CCc2c(sc(NC(=O)c3cccs3)c2C(=O)NCCO)C1 (centres unmarked),5.23%
19,CCc1nnc(NC(=O)c2c(OC)cccc2OC)s1,-3.98%
20,COc1cccc(-c2nc(-c3cc4ccccc4nc3OC)no2)c1,-4.19%
21,CC(C)C(NC(=O)c1ccc(Cl)cc1)C(=O)Nc1nc2ccccc2s1 (centres unmarked),2.17%
22,Cc1ccc(/C=C(\NC(=O)c2ccccc2)C(=O)NCCc2cccc(Cl)c2)o1,2.17%

row,SMILES,% Inhibition @ 10 uM
1,CCOC(=O)c1c(CSc2ccc(C)cc2)n(C)c2ccc(O)cc12,-7.23%
2,CSc1nsc(SCC(=O)NCc2ccco2)n1,-1.52%
3,c1ccc2nc(-c3ccc(Cc4ccc(-c5cnc6ccccc6n5)cc4)cc3)cnc2c1,0.989%
4,CC(C)C[C@H](NC(=O)OCc1ccccc1)C(=O)N[C@H](C#N)Cc1c[nH]cn1,3.19%
5,Brc1ccc(Cn2c3ccccc3c3nc4ccccc4nc32)cc1,-2.51%
6,CC1(C)CC(=O)C2=C(C1)OC(N)=C(C#N)C2c1ccc(-c2ccc(F)cc2)o1 (centres unmarked),-1.38%
7,Cc1cc(C)c(C(=O)Cc2ccccc2)c(O)n1,-6.12%
8,CS/C(=C\C(=O)c1ccco1)CC(=O)c1ccco1,-1.17%
9,CC(C)(C)n1ncc2c(=O)n(CC(=O)NC3CCCC3)cnc21,3.24%
10,CCOc1ccc(/C=C2/S/C(=N/c3ccccc3)N(C)C2=O)cc1OC,-10.6%
11,COc1cc(C2C(C(C)=O)=C(C)Nc3ncnn32)ccc1OCc1ccccc1C (centres unmarked),-2.98%
12,Cc1cc(/C=C2/NC(=O)N(c3ccc(Cl)cc3)C2=O)c(C)n1-c1ccc(S(N)(=O)=O)cc1,5.73%
13,N#CCNC(=O)[C@H](CSCc1ccccc1)NC(=O)/C=C/c1cccnc1,1.35%
14,OC12CC3CC(C1)C(Nc1ccc(Br)cc1)C(C3)C2 (centres unmarked),-1.82%
15,CC1(C)CC(=O)C(/C=N/c2ccncc2)=C(O)C1,-1.06% and -1.26%
16,Cc1ccccc1Cn1c(C(=O)O)c(CNCCc2cccs2)c2ccccc21,1.93%
17,COc1ccccc1-c1nnc(SCC#CCO)o1,1.74%
18,Cc1nc2cc(-c3ccccc3)nn2c(C)c1CCC(=O)NC1CCCC1,2.93%
19,O=C1c2cccc3c(O)c(Cc4ccccc4)c(O)c(c23)C(=O)N1c1ccccc1,-1.07%
20,O=C(c1ccc(CS(=O)Cc2ccccc2Cl)o1)N1CCC(N2CCCCC2)CC1 (centres unmarked),-3.61%
21,COc1ccc(S(=O)(=O)Nc2ccccc2C(=O)N2CCCC2)cc1C,-3.71%
